Measurements taken from PubChem BioAssay AID1508642 (National Center for Advancing Translational Sciences (NCATS), 2021).
About 200 (0.47%) of roughly 43,000 compounds were called active. Not shown: some 12% with an inconclusive outcome. The call rests on the fitted dose curve; in most records, active means well fitted cell-killing curve with a large enough effect; inconclusive means small, poorly fitted or top-dose-only effect, or effect the other way; inactive means flat fitted curve, though single readings scatter. The list shows a part of the results.

Assay: Cell viability qHTS assay in S16 Pmp22-F2sN cells; further: nearly all actives have a fitted effect of over 65% in size
Details: S16 Pmp22-F2sN Schwann cells (luciferase reporters placed in the Pmp22 gene) viability, CellTiter-Glo, 24 h; series mostly up to 57.5 µM; activity change, negative = cytotoxicity: at the top concentration
Method in brief: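 CellTiter-Glo counter-screen, qHTS, 1536-well. Cells: S16(c9) Pmp22-F2sN, 500-1,000/well in DMEM + 10% FBS. Cpd 23 nL pin transfer, 24 h, 37C/5% CO2. Read: luminescence, CCD imager.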
On the % scale 0 is the no-effect control and ±100 the full control effect.

| Compound | activity change, negative = cytotoxicity |
| --- | --- |
| COc1ccc(N(CC(=O)NCCc2ccccc2)S(=O)(=O)c2ccccc2)c(OC)c1 | inactive: 0.988% |
| CCOC(=O)C1CCN(c2ncnc3c2nnn3C)CC1 | inactive: -15.6% |
| Cc1ccc(CN(C(=O)COc2cccc([N+](=O)[O-])c2)c2ccccn2)cc1 | inactive: 0.293% |
| CC(C)NC(=O)c1ccc(-n2c(-c3ccccc3)cc3c2CCCCC3)cc1 | inactive: -0.592% |
| COc1ccc(Cl)cc1NC(=O)Cn1cc(C(=O)c2ccncc2)c(=O)c2cc(C)ccc21 | inactive: 7.71% |
| Nc1ncc(S(=O)(=O)NCc2ccc(Cl)cc2)cn1 | inactive: -1.23% |
| Cc1cc(C)cc(OCC(=O)Nc2ccc(-c3nc4ccccc4s3)cc2)c1 | inactive: 8.1% |
| COc1cc2nc(SCc3cccc(Cl)c3)n3nc(CCn4nc(C)cc4C)nc3c2cc1OC | inactive: -0.36% |
| CCOc1ccc(-c2cc(OC(=O)c3ccccc3)c3c(C)oc(C)c3c(=O)c2)cc1 | inactive: -3.09% |
| Cn1nnc2c(N3CCN(c4ccccc4F)CC3)ncnc21 | inactive: -5.14% |
| O=C(CSc1nc2ccccc2n1Cc1ccccc1F)NCc1ccccc1 | inactive: 7.96% |
| Cc1ccccc1C(=O)Nc1cccc(C(=O)OCc2cc(=O)n3c4c(sc3n2)CCCC4)c1 | inactive: -1% |
| CCC(Sc1nc2cc(OC)c(OC)cc2c(=O)n1CCc1ccc(Cl)cc1)C(=O)NCCOC (configuration not stated) | inactive: 8.91% |
| Cc1ccc(C)c(N2C(=O)N(Cc3cc(=O)n4ccccc4n3)c3ccccc3S2(=O)=O)c1 | inactive: 17.9% |
| CCOC(=O)c1c(C)oc2ncnc(Nc3ccc(OCC)cc3)c12 | inactive: 3.16% |
| COc1cccc(C(=O)c2sc3nc(-c4ccccc4)cc(C(F)(F)F)c3c2N)c1 | inactive: 14.6% |
| Cc1ccc(C)n1-c1nnc(N2CCCC(C(=O)Nc3ccc(C(C)C)cc3)C2)s1 (configuration not stated) | inactive: -12.5% |
| COC(=O)c1ccccc1NC(=O)Cn1c(=O)n(Cc2ccc(C(=O)NCc3ccc4c(c3)OCO4)cc2)c(=O)c2ccccc21 | inactive: -1.84% |
| Cc1ccc(N(CC(=O)NCCc2ccccc2)S(=O)(=O)N(C)C)cc1 | inactive: -1.33% |
| COc1cccc(NC(=O)CNC(=O)Cn2c(C)cc3ccccc3c2=O)c1 | inactive: 7.22% |
| CCCCOc1ccc(C(=O)Nc2ccc(-c3nc4ccccc4s3)cc2C)cc1 | inactive: 11% |
| Cn1ccc2cc(S(=O)(=O)N3CCC(C(=O)NCCc4ccccc4)CC3)ccc21 | inactive: 3.91% |
| COc1cc(C)ccc1OCCSc1nc2ccc(NC(=O)c3ccc(F)cc3)cc2s1 | inactive: 0.231% |
| N#Cc1ccccc1NC(=O)Cn1cnc2onc(-c3cccc(F)c3)c2c1=O | inactive: 13.2% |
| CCc1cccc(NC(=O)Nc2csc3c2CCCC3)c1 | inactive: 15.3% |

| Compound | activity change, negative = cytotoxicity |
| --- | --- |
| O=C(CN1C(=O)CCc2cc(S(=O)(=O)N3CCOCC3)ccc21)NCc1ccc(F)cc1 | inactive: 1.73% |
| Cc1ccc(CNC(=O)c2ccc3c(c2)nc(C)n3-c2cc(C)cc(C)c2)cc1 | inactive: -16.7% |
| O=C(COc1ccccc1F)Nc1ccc(-c2nc3ccccc3s2)cc1 | inactive: 8.13% |
| COc1ccc(OC)c(NC(=O)N2CCN(S(=O)(=O)c3ccc4c(ccn4C)c3)CC2)c1 | inactive: 1.59% |
| COc1ccc(C(CNC(=O)c2oc3ccc(C)cc3c2C)N2CCOCC2)cc1 (configuration not stated) | inactive: 11.7% |
| CCn1cc(C(=O)N2CCN(c3cccc(Cl)c3)CC2)c(=O)c2cc(S(=O)(=O)N3CCCCC3)ccc21 | inactive: -7.69% |
| COc1ccc(OC)c(NC(=O)Cn2c(=O)n(Cc3ccccc3)c(=O)c3ccccc32)c1 | inactive: 14.4% |
| Cc1ccc2nc(-c3ccc(O)cc3)c(Nc3ccc4c(c3)OCCO4)n2c1 | inactive: -20.9% |
| CCCSCCCNC(=O)C1CCN(c2nn3cc(-c4ccc(F)cc4)nc3s2)CC1 | inactive: -29.3% |
| CCCn1c(-c2ccc(S(=O)(=O)N3CCOCC3)cc2)csc1=Nc1ccc(OCC)cc1 | inactive: 14.1% |
| CC(C)Cn1c(=O)c2ccccc2n2c(CCC(=O)N3CCN(c4ccccc4F)CC3)nnc12 | inactive: 25.3% |
| CCOC(=O)c1c(C)oc2nc(C)nc(Nc3ccc(CC)cc3)c12 | inactive: 13.5% |
| CCn1c(C(=O)N2CCC(C(=O)NCCc3ccc(OC)cc3OC)CC2)cc2sccc21 | inactive: -16.3% |
| Cc1cc(C)cc(NS(=O)(=O)c2ccc3c(c2)NC(=O)C(C)S3)c1 (configuration not stated) | inactive: 1.86% |
| CCOCCCNC(=O)C1CCC(CNS(=O)(=O)c2ccc(NC(C)=O)cc2)CC1 (configuration not stated) | inactive: -2.56% |
| Cc1ccc(C)c(CN2C(=O)c3ccccc3S(=O)c3ccc(C(=O)NCc4ccccc4)cc32)c1 (configuration not stated) | inactive: 13% |
| COc1ccc(NC(=O)c2ccc(-c3nc(CSc4ccccc4)c(C)o3)cc2)cc1OC | inactive: -2% |
| COc1ccccc1Cc1nc2ccccc2[nH]c1=O | inactive: 10.6% |
| Cc1c(C(=O)NCc2ccccc2Br)oc2c1-c1[nH]ncc1CC2 | inactive: -4.14% |
| CCc1ccc(S(=O)(=O)c2nnn3c2nc(NC2CCCCCC2)c2sccc23)cc1 | inactive: 27.9% |
| COc1cccc2c1Oc1ncccc1N(C(=O)Nc1ccc(F)c(Cl)c1)C2 | inactive: 5.79% |
| CCOC(=O)C(CC)Sc1ccc2nnc(CCNS(=O)(=O)c3ccc(C)cc3)n2n1 (configuration not stated) | inactive: 14.7% |
| CCOc1ccc(CC(=O)NCCc2sc3nc(-c4ccc(OC)cc4)nn3c2C)cc1 | inactive: -0.761% |
| Cc1cccc(-n2c(=O)c3c4c(sc3n3cnnc23)CCCC4)c1 | inactive: 2.26% |
| Cc1cc(C)cc(NC2=CC(c3cccc(F)c3)N(c3cc(C)cc(C)c3)C2=O)c1 (configuration not stated) | inactive: 9.66% |

| Compound | activity change, negative = cytotoxicity |
| --- | --- |
| Cc1cc(=O)n(Cc2cccc(Cl)c2)c2c1c(C)nn2-c1ccccc1 | inactive: -0.0399% |
| COc1ccc(CNC(=O)CN(c2ccccc2)S(=O)(=O)N(C)C)cc1 | inactive: -2.2% |
| Cc1ccc(CNC(=O)c2ccc(Cn3c(SCc4ccccc4F)nc4cccnc43)cc2)cc1 | inactive: 1.85% |
| CN(C)S(=O)(=O)c1ccc(C(=O)N2CC(=O)Nc3ccc(Br)cc3C2c2ccc(F)cc2)cc1 (configuration not stated) | inactive: -12% |
| CC1CCN(C(=O)Cn2c(=O)oc3cc(S(=O)(=O)N4CCCCC4)ccc32)CC1 | inactive: 0.138% |
| CCOC(=O)Cn1cnc2onc(-c3ccc(F)cc3)c2c1=O | inactive: -3.98% |
| COc1ccc(C(CNC(=O)COc2ccc(Cl)c(C)c2)N2CCOCC2)cc1 (configuration not stated) | inactive: 2.76% |
| CCCCSc1ncnc2c1c(-c1ccccc1)cn2-c1cccc(F)c1 | inactive: 3.19% |
| CCN(CC)S(=O)(=O)c1nnc(NC(=O)COc2ccc(Cl)cc2)s1 | inactive: 1% |
| Cc1nnc(SCC(=O)Nc2ccc(Br)cc2)[nH]c1=O | inactive: 5.42% |
| O=c1c(=O)n(-c2cccc(Cl)c2)ccn1Cc1cccc(F)c1 | inactive: -7.16% |
| CC(=O)N1CCc2cc(S(=O)(=O)NC(CC(C)C)C(=O)NCc3ccccc3)ccc21 (configuration not stated) | inactive: -0.289% |
| COc1cccc2c1cc1c(=O)n(CC(=O)NC3CC3)nc(C)n12 | inactive: 9.21% |
| CCOc1ccc(NC(=O)C(NC(=O)C2CCC(C)CC2)C(C)C)cc1 (configuration not stated) | inactive: 3.1% |
| CCOC(=O)c1cc(-c2ccccc2)n(CC(=O)N(C)c2ccc(OC)cc2)c1C | inactive: -13.5% |
| CCCCC(CC)CNC(=O)CCCn1c(=O)[nH]c2ccsc2c1=O (configuration not stated) | inactive: 4.22% |
| COc1ccc(C)cc1Nc1nc(-c2cccc(Cl)c2)c2c(n1)-c1ccccc1OC2 | inactive: 6.24% |
| COc1cc(-c2nc(Cn3nnc(C(=O)Nc4cc(C)cc(C)c4)c3C)c(C)o2)cc(OC)c1OC | inactive: 5.46% |
| Cc1ccc(-c2nc(N3CCN(c4ccccc4Cl)CC3)c3ccccc3n2)cc1 | inactive: 7.26% |
| CCN(CCCNC(=O)c1cc2cc3ccc(C)cc3nc2s1)c1ccccc1 | inactive: -3.7% |
| CCCN(c1ccccc1CC)S(=O)(=O)c1ccc2c(c1)CC(C)N2C(=O)C1CC1 (configuration not stated) | inactive: -23.3% |
| CCS(=O)(=O)N1CC(=O)N(c2cccc(Cl)c2C)C(C)(C(=O)NC2CCCCC2)C1 (configuration not stated) | inactive: -0.22% |
| Cc1ccc(NC(=O)c2oc3ccc(S(=O)(=O)N(C)C4CCCCC4)cc3c2C)cc1Cl | inactive: 13% |
| COc1ccc(-c2nc(CSCC(=O)N3CCN(c4ccc(OC)cc4)CC3)c(C)o2)cc1 | inactive: -23.3% |
| O=S(=O)(c1cccc(F)c1)N1CCC(c2nc3ccccc3s2)CC1 | inactive: 1.57% |

| Compound | activity change, negative = cytotoxicity |
| --- | --- |
| COCCNC(=O)CCCN1C(=O)c2ccccc2Sc2ncccc21 | inactive: 8.26% |
| Cc1ccc(Cn2ccnc2SCC(=O)NCc2ccc(F)cc2)cc1 | inactive: -19% |
| COc1ccc(NC(=O)CSc2nc3ccccc3n2CC(=O)N(C)c2ccc(F)cc2)cc1 | inactive: -9.01% |
| COc1ccc(OCCCCn2c(C3CC(=O)N(c4cccc(Cl)c4)C3)nc3ccccc32)cc1 (configuration not stated) | inactive: -23% |
| Cc1cc(C)n(CCc2nc3c4ccccc4nc(N4CCN(c5ccccc5F)CC4)n3n2)n1 | inactive: 2.74% |
| C#CC(C)(CC)NC(=O)c1cnn2c(C(F)F)cc(-c3ccccc3OC)nc12 (configuration not stated) | inactive: -0.0477% |
| Cc1ccc(NC(=O)/C(C#N)=C/c2ccc(C)o2)cc1 | inactive: -1.91% |
| CC(C)CCNC(=O)c1ccc2c(c1)NC(=O)C(CS(=O)(=O)Cc1cccc(Br)c1)N2 (configuration not stated) | inactive: -0.169% |
| CCOc1ccc(NC(=O)c2cn(C)c(=O)c3cc(OC)c(OC)cc23)cc1 | inactive: -0.175% |
| CN1C(=O)C2(SCC(=O)N2c2cccc(C(F)(F)F)c2)c2ccccc21 (configuration not stated) | inactive: 15.9% |
| CCOC(=O)C1CCC(CN(Cc2ccc(Cl)cc2)S(=O)(=O)c2ccc(Br)cc2)CC1 (configuration not stated) | inactive: -2.24% |
| COc1ccc(-c2onc(C)c2C)cc1S(=O)(=O)N(C)Cc1ccco1 | inactive: -7.75% |
| CCOC(=O)C1CCN(CC(=O)N2CCCc3c2c(=O)oc2ccc(OCc4ccccc4)cc32)CC1 | inactive: 17.9% |
| CCS(=O)(=O)N1CCc2cc(C(=O)NCCc3ccccc3)ccc21 | inactive: 11.3% |
| CCCN1CCN(CCNC(=O)Nc2ccc(OC)c(OC)c2)CC1 | inactive: 21.4% |
| CCc1ccc(NC(=O)CN2C(=O)C3(SCC(=O)N3c3ccccc3)c3ccccc32)cc1 (configuration not stated) | inactive: -16.1% |
| COc1ccc(NC(=O)c2sc3nc(C)c(C(=O)Nc4ccc(C)cc4C)c(-c4ccc(C)o4)c3c2N)cc1 | inactive: 2.29% |
| Cc1ccc(Nc2nc(C)cc(C)n2)c(C(=O)O)c1 | inactive: 8.03% |
| COc1ccc(NC(=O)Cn2nc(-c3ccncc3)ccc2=O)cc1Cl | inactive: -7.08% |
| CC1(C)CC(=O)c2cc(-c3nc(-c4ccc(Cl)cc4)cs3)c(=O)n(-c3ccc(Cl)cc3)c2C1 | inactive: -1.06% |
| CN(C)CCNC(=O)CCCN1C(=O)c2cccnc2Oc2ccc(Cl)cc21 | inactive: 22.8% |
| O=C1CC(c2nc3ccccc3n2CCCOc2ccccc2)CN1c1ccc(F)cc1 (configuration not stated) | inactive: -7.25% |
